Data on nine compounds can be found in PubChem BioAssay AID1963865 (Molecular Pharmacology Branch, DTP, NCI, 2024).

A number of entries come with more than one value. The other results are left out here. The source may hold further records. The values listed for one entry repeat one measurement in other runs, samples, wells, individuals or studies. Dates in brackets are months of testing. Signs of the kind (2×) count equal records among those shown.

What is called viability, T/C is the result in the treated group divided by that in the control group, in per cent. As usually defined, the IC50 is the point on the concentration scale where inhibition reaches its midpoint.

For the test, the system named is KRAS PDC multicell spheroid viability. Briefly: Anticancer human tumor 825966-067-R-J1-PDC patient-derived colon carcinoma cell line growth inhibition [KRAS2]. The note with it: for viability, T/C: stronger effect = lower value. The source says:
Multicellular complex tumor spheroid response to RAS pathway inhibitors in combination with a targeted agents in patient-derived cell lines with oncogenic KRAS variants from multiple cancer types
A high-throughput screen of multi-cell type tumor spheroids was designed to identify active combinations of targeted small molecules and KRAS pathway inhibitors. Complex spheroids include a stromal component modeled by human endothelial cells (HUVEC) and fibroblasts modeled by human mesenchymal stem cells (MSCs). The concentration ranges selected for each drug and investigational agent were based upon clinically achievable concentrations if the clinical Cmax of the agent was known.
Compounds. The drugs and investigational agents: BI-3406 (NSC825286), BAY-293 (NSC824723), batoprotafib (TNO155; NSC825523), sotorasib (AMG 510; NSC818433), MRTX1257 (NSC819558), elimusertib (BAY 1895344; NSC800525), molibresib (GSK525762; NSC774829), temuterkib (LY3214996; NSC803410), venetoclax (NSC766270), alisertib (NSC759677), olaparib (NSC753686), talazoparib (NSC767125), erdafitinib (NSC781556), ipatasertib (NSC767898), cabozantinib (NSC761068), nintedanib (NSC756659), abemaciclib (NSC768073), docetaxel (NSC628503), trametinib (NSC758246), and sapanisertib (NSC764658) were obtained from the National Cancer Institute (NCI) Developmental Therapeutics Program Chemical Repository. The FDA-approved anticancer drug set is available from the Developmental Therapeutics Program. […] The stock solutions were prepared in dimethyl sulfoxide (DMSO, Sigma-Aldrich, St. Louis, MO, cat. D2650) at 800-fold the tested concentration and stored at -70 degrees C prior to their use. All drugs and investigational agents were tested over a range starting from a high concentration at or near the clinical Cmax and decreasing in half-log increments. If the clinical Cmax for an agent had not been determined, the highest concentration tested was 10 microM.
Cell Culture. All cells were maintained in an incubator at 37 degrees C and 5% CO2 with 95% humidity. The PDC lines were cultured according to standard operating procedures established by the NCI PDMR (https://pdmr.cancer.gov/sops/default.htm). Briefly, all PDCs were thawed and cultured in Matrigel-coated flasks prepared with a working solution of 1X Ham's F-12 nutrient mix, without supplementation (Invitrogen, Waltham, MA, cat. 11765054), 100 U/mL penicillin-streptomycin (Invitrogen, cat. 15140122), and 2.5% Matrigel (Corning Inc., Corning, NY, cat. 354248) for the first three passages. All PDCs were cultured in complete DMEM/F-12 media containing advanced DMEM/F-12 (Invitrogen, cat. 12634028), 4.9% defined fetal bovine serum, heat inactivated (HyClone Laboratories Inc., Logan, UT, cat. SH30070.03HI), 389 ng/mL hydrocortisone (Sigma-Aldrich, cat. H4001), 9.7 ng/mL human EGF recombinant protein (Invitrogen, cat. PHG0313), 23.4 microg/mL adenine (Sigma-Aldrich, cat. A2786), 97.3 U/mL penicillin-streptomycin (Invitrogen, cat. 15140122), 1.9 mM L-glutamine (Invitrogen, cat. 25030081), and 9.7 microM Y-27632 dihydrochloride (Tocris Bioscience, Bristol, United Kingdom, cat. 1254). The PDCs were cultured in complete DMEM/F12 media without 9.7 microM Y-27632 dihydrochloride for at least two passages prior to the screen. The established cell line HOP-62 was cultured in RPMI 1640 medium, HEPES (Invitrogen, cat. 22400105) with 10% defined fetal bovine serum (HyClone Laboratories Inc., cat. SH30070.03) and 2 mM L-glutamine (Invitrogen, cat. 25030081). The pooled donor HUVEC were cultured in endothelial cell growth medium 2 (PromoCell, Heidelberg, Germany, cat. C-22011) and the hMSC were cultured in mesenchymal stem cell growth medium 2 (PromoCell, cat. C-28009). For all experiments, HUVEC and hMSC were used at passages </=5, while the malignant cell lines were used at passages </=15. […]
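Note: spheroids exposed to compounds for 7 days.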

On to `COC(=O)c1ccc2c(C(=Nc3ccc(N(C)C(=O)CN4CCN(C)CC4)cc3)c3ccccc3)c(O)[nH]c2c1`, for which the viability, T/C (compound alone 1 µM) is 40.8, 61.5, 50.1, 74.5, 90.9%.
Take `CC1(C)CCC(CN2CCN(c3ccc(C(=O)NS(=O)(=O)c4ccc(NCC5CCOCC5)c([N+](=O)[O-])c4)c(Oc4cnc5[nH]ccc5c4)c3)CC2)=C(c2ccc(Cl)cc2)C1`: the viability, T/C is reported as 89.8, 99.9, 87.5, 77.8, 104% (compound alone 0.0316 µM) and 91.1, 82.9, 82.4, 96.2, 108% (compound alone 1 µM).
On to `COc1cc(Nc2ncc3c(n2)-c2ccc(Cl)cc2C(c2c(F)cccc2OC)=NC3)ccc1C(=O)O`, for which the viability, T/C is listed as 90.2, 134, 123, 129, 105% (compound alone 0.0316 µM) and 102, 138, 125, 95, 111% (compound alone 0.316 µM).
For the compound `CC(=O)Nc1cccc(-n2c(=O)n(C3CC3)c(=O)c3c(Nc4ccc(I)cc4F)n(C)c(=O)c(C)c32)c1`, the viability, T/C was 106, 92.6, 92.4, 107, 81.3% (compound alone 0.001 µM); 125, 101, 97.4, 110, 98.8% (compound alone 0.00316 µM); 50.6, 44, 63.9, 81.5, 86.1% (compound alone 0.0316 µM).
Consider `C=CC(=O)N1CCN(c2nc(=O)n(-c3c(C)ccnc3C(C)C)c3nc(-c4c(O)cccc4F)c(F)cc23)C(C)C1` (stereo not given), for which the viability, T/C runs as follows: (compound alone 0.1 µM) 89.3, 90, 80.8, 82.2, 77.5, 82.3, 118, 82.6, 105, 99.2, 74.4% [2021-08] and 82, 93.8, 99.7, 101, 69.5, 72.2% [2021-09]; (compound alone 0.316 µM) 93.3, 103, 81.5, 76.8, 77.3, 83.5, 99, 97.2, 88, 82.8, 81.3% [2021-08] and 88.2, 87.8, 89.5, 84.7, 76.8, 74.9% [2021-09]; (compound alone 1 µM) 80.3, 76.5, 100, 75.3, 79.5, 81.6, 86.8, 95.7, 91.4, 99.6, 103% [2021-08] and 96.4, 83.8 (2×), 84.8, 75.2, 85.8% [2021-09]; (compound alone 3.16 µM) 81.9, 83, 96.1, 68.8, 92, 69.9, 77.3, 89.2, 80.1, 95.9, 83.3% [2021-08] and 68.9, 75.2, 77.5, 96.8, 66.6, 81.9% [2021-09]; (compound alone 10 µM) 81.5, 85.4, 79.2, 77.8, 72.6, 94.8, 88.7, 62, 85.5, 111, 97.3% [2021-08] and 89.4, 75.1, 76.8, 104, 77.1, 87.1% [2021-09].
For the compound `CCNC(=O)CC1N=C(c2ccc(Cl)cc2)c2cc(OC)ccc2-n2c(C)nnc21` (stereo not given), the viability, T/C runs as follows: (compound alone 0.0316 µM) 82.2, 95.4, 118, 90.8, 91.8%; (compound alone 0.1 µM) 81.4, 108, 101, 123, 112%; (compound alone 0.316 µM) 102, 77.9, 104, 88.6, 134%; (compound alone 1 µM) 108, 80.5, 95.3, 93.3, 98.5%; (compound alone 3.16 µM) 93.2, 69.7, 99.2, 84.9, 106%.
`CC1OCC2(CCN(c3cnc(Sc4ccnc(N)c4Cl)c(N)n3)CC2)C1N` (stereo not given): the viability, T/C was 91, 85.8, 86.5, 82.5, 86.2, 95.8, 102, 90.9, 94.6, 95.2, 75% [2021-08] and 83.8, 89.2, 81.5, 88.7, 84.7, 97.7, 93.2, 87.8% [2021-09] (compound alone 0.316 µM); 88.8, 108, 73.4, 91.8, 85.8, 84.3, 117, 83.8, 99.9, 95.2, 83.3% [2021-08] and 79, 94.7, 81.1, 89.6, 85.8, 102, 103, 85% [2021-09] (compound alone 1 µM); 90.3, 92.3, 80.7, 98.1, 94.8, 105, 83.2, 99.9, 127, 93.4, 78.6% [2021-08] and 103, 98.8, 93, 89, 99.1, 96.4, 115, 89.4, 88.7% [2021-09] (compound alone 3.16 µM); 84.7, 85, 99.7, 54.2, 78.7, 47, 27.4, 49.6, 47.3, 37.1, 40.6% [2021-08] and 47.6, 44.4, 72.4, 66.8, 81.7, 99.7, 94.9, 41.9, 68.9% [2021-09] (compound alone 10 µM).
For `CCN1CCN(Cc2ccc(Nc3ncc(F)c(-c4cc(F)c5nc(C)n(C(C)C)c5c4)n3)nc2)CC1`, the viability, T/C (compound alone 0.0316 µM) is 114, 86.9, 115, 99.5, 80.1% and the viability, T/C (compound alone 1 µM) was 101, 158, 170, 142, 165%.
Regarding `COc1cc2nc(C)nc(NC(C)c3cc(N)cc(C(F)(F)F)c3)c2cc1OC1CCOC1` (stereo not given), the viability, T/C reads like this: (compound alone 0.1 µM) 90.7, 95.7, 75.8, 110, 81.5, 91.5, 93.5, 84.4, 97.2, 82.6, 89.8% [2021-08] and 87.2, 79.3, 103, 95.7, 84.6, 92% [2021-09]; (compound alone 0.316 µM) 106, 101 (2×), 79.3, 95.7, 69.1, 81.5, 111, 76.3, 88, 92.4% [2021-08] and 102, 96.8, 105, 89.6, 89.7, 96.3% [2021-09]; (compound alone 1 µM) 94.2, 94.5, 92.7, 78.3, 84.8, 117, 89.1, 82.2, 101, 89.9, 96.5% [2021-08] and 99.2, 99.3, 104, 60.5, 97.8, 96% [2021-09]; (compound alone 3.16 µM) 112, 104, 111, 95.6, 97.8, 94.6, 90.9, 72.3, 121, 102, 99% [2021-08] and 131, 112 (3×), 96.1, 98.4% [2021-09]; (compound alone 10 µM) 71.5, 109, 107, 6.7, 8.95, 1.37, 17.1, 14.1, 36.2, 7.67, 10.4% [2021-08] and 69.4, 51.9, 86.3, 113, 35, 66.1% [2021-09]. Besides, for the setting “compound alone, run of 08/19/2021”, the 50% inhibitory concentration (IC50) is > 10 µM, 5.65 µM, 5.3 µM, 5.49 µM.
